Laboratory results from PMC6664820, “Novel natural and synthetic inhibitors of solute carriers SGLT1 and SGLT2” (Pharmacology Research & Perspectives, 2019).
The campaign covered roughly 1,900 compounds. About 40 (2%) showed an effect of 50% or more. Some of the results follow.

biological target: human SGLT1 (hSGLT1) (human, UniProt P13866); assay: primary screen, percent of control activity; higher = less effect of the substance; set-up: single well; conditions: 50 µM
In short: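 Single-point screen at 50 µmol/L in CHO-hSGLT1 cells, with 160 µmol/L 1-NBD-glucose in glucose-free DMEM for 90 min at 37°C. Fluorescence from isopropanol extracts was calibrated, and CHO wild-type uptake was subtracted. Data are percent of uptake without compound.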

| SMILES | NORMALIZED SGLT1 ACTIVITY (%) |
| --- | --- |
| CC[C@H]1CN2CCC1C[C@@H]2[C@@H](O)c1ccnc2ccc(OC)cc12 (stereo partly drawn) | 66 |
| CC(N/C(=N/C#N)Nc1ccncc1)C(C)(C)C (stereo not drawn) | 150 |
| Cl.FC(F)(F)c1cccc(N2CCNCC2)c1 | 114 |
| O=C(O)c1cc(=O)c2ccccc2o1 | 87 |
| C[C@H]1C[C@@H]2[C@H]([C@@H](O)C[C@@]3(C)[C@H]2CC[C@]3(O)C(=O)CO)[C@@]2(C)C=CC(=O)C=C12 | 138 |
| CS(=O)(=O)CCCCN=C=S | 243 |
| CC(NC(C)(C)C)C(=O)c1cccc(Cl)c1.Cl (stereo not drawn) | 103 |
| O=C([O-])CCC(=O)OC[C@@H](NC(=O)C(Cl)Cl)[C@H](O)c1ccc([N+](=O)[O-])cc1.[Na+] | 94 |
| CCCN(CCC)S(=O)(=O)c1ccc(C(=O)O)cc1 | 105 |
| N[C@@H](C(=O)O)[C@@H](O)[C@H](O)[C@H](O)CO | 89 |
| COc1cc([C@@H]2c3cc4c(cc3[C@@H](O[C@@H]3O[C@@H]5CO[C@@H](C)O[C@H]5[C@H](O)[C@H]3O)[C@H]3COC(=O)[C@H]23)OCO4)cc(OC)c1O | 139 |
| C[N+]1(C)[C@@H]2C[C@@H](OC(=O)[C@H](CO)c3ccccc3)C[C@H]1[C@@H]1O[C@@H]12.[Br-] | 103 |
| Cc1ccc(O)cc1 | 104 |
| CCOC(=O)C1=C[C@]2(CC)CCCN3CCc4c(n1c1ccccc41)[C@@H]32 | 90 |
| CN/C(=C\[N+](=O)[O-])NCCSCc1ccc(CN(C)C)o1.Cl | 106 |
| Cl.N=c1ccn2c(n1)O[C@@H]1[C@@H](O)[C@H](CO)O[C@@H]12 | 94 |
| CO[C@@H]1[C@@H](OC(N)=O)[C@@H](O)[C@H](Oc2ccc3c([O-])c(NC(=O)c4ccc(O)c(CC=C(C)C)c4)c(=O)oc3c2C)OC1(C)C.[Na+] | 109 |
| O=C(O)c1cc(O)c2ccccc2n1 | 97 |
| COc1ccc(-c2cc(=O)c3c(O)c(OC)c(OC)cc3o2)cc1O | 91 |
| O=[N+]([O-])c1ccc(O)c([N+](=O)[O-])c1 | 145 |
| NC(=O)CS(=O)C(c1ccccc1)c1ccccc1 (stereo not drawn) | 89 |
| CCC(=O)O[C@]1(C(=O)CCl)[C@@H](C)C[C@H]2[C@@H]3CCC4=CC(=O)C=C[C@]4(C)[C@@]3(F)[C@@H](O)C[C@@]21C | 213 |
| CC(=O)C1CCC2C3CCC4C[C@H](O)CCC4(C)C3C[C@H](O)C12C (stereo partly drawn) | 123 |
| ClC1=C(Cl)C2(Cl)C3C4C=CC(C4)C3C1(Cl)C2(Cl)Cl (stereo not drawn) | 96 |
| COc1ccc(C[C@H]2NC[C@H](O)[C@H]2OC(C)=O)cc1 | 143 |
| O=C1CN(/N=C/c2ccc([N+](=O)[O-])o2)C(=O)N1 | 159 |
| CCC(=O)O[C@H]1[C@H](O[C@@H]2[C@@H](C)[C@H](O[C@H]3C[C@@](C)(OC)[C@@H](O)[C@H](C)O3)[C@@H](C)C(=O)O[C@H](CC)[C@@](C)(O)[C@H](O)[C@@H](C)C(=O)[C@H](C)C[C@@]2(C)O)O[C@H](C)C[C@@H]1N(C)C.CCCCCCCCCCCCOS(=O)(=O)O | 143 |

| SMILES | NORMALIZED SGLT1 ACTIVITY (%) |
| --- | --- |
| CCc1cccc(CC)c1N(COC)C(=O)CCl | 88 |
| CC12CCC(=O)C=C1CCC1C2[C@@H](O)CC2(C)C1CC[C@]2(O)C(=O)COP(=O)([O-])[O-].CC[NH+](CC)CC.CC[NH+](CC)CC (stereo partly drawn) | 125 |
| CCOC(=O)C(Cc1ccc(O)cc1)NC(C)=O (stereo not drawn) | 138 |
| CCCCCC(=O)Cc1cc(O)cc(O)c1C(=O)Oc1cc(CC(=O)CCCCC)c(C(=O)O)c(OC)c1 | 215 |
| COc1cc2c(cc1OC)-c1c(oc3c4c(ccc3c1=O)OC(C(C)C)C4)CO2 (stereo not drawn) | 120 |
| CCOP(=S)(OCC)SCCSCC | 77 |
| COc1ccc2ccc(=O)oc2c1 | 130 |
| C=CCc1ccc2c(c1)OCO2 | 105 |
| CC(=O)O[C@H]1CC[C@@]2(C)[C@@H](CC[C@@H]3[C@@H]2CC(=O)[C@]2(C)[C@@H]4[C@H](C[C@@H]32)O[C@]2(CC[C@@H](C)CO2)[C@H]4C)C1 | 116 |
| CCOC(=O)C1=C(C)NC(C)=C(C(=O)OC)C1c1cccc([N+](=O)[O-])c1 (stereo not drawn) | 112 |
| COc1ccc(Cc2nccc3cc(OC)c(OC)cc23)cc1OC.Cl | 312 |
| NCC[C@H](O)C(=O)N[C@@H]1C[C@H](N)[C@@H](O[C@H]2O[C@H](CN)[C@@H](O)[C@H](O)[C@H]2O)[C@H](O)[C@H]1O[C@H]1O[C@H](CO)[C@@H](O)[C@H](N)[C@H]1O.O=S(=O)(O)O.O=S(=O)(O)O | 80 |
| CCC1(c2ccc(N)cc2)CCC(=O)NC1=O (stereo not drawn) | 108 |
| COc1c(-c2coc3cc4c(cc3c2=O)CC(O)C(C)(C)O4)ccc2c1C=CC(C)(C)O2 (stereo not drawn) | 280 |
| C1CNCCN1 | 132 |
| NC(Cn1ccc(=O)c(O)c1)C(=O)O (stereo not drawn) | 110 |
| C[C@@H]1O[C@@H](OC[C@H]2OC(Oc3c(-c4ccc(O)c(O)c4)oc4cc(O)cc(O)c4c3=O)[C@H](O)[C@@H](O)[C@@H]2O)[C@H](O)[C@H](O)[C@H]1O (stereo partly drawn) | 104 |
| Cc1cc(=O)n(-c2ccccc2)n1C | 118 |
| C=C1C(C2(C)C=CC(=O)C(C)(C)C2CC(=O)OC)CC[C@@]2(C)[C@H](c3ccoc3)OC(=O)C3OC132 (stereo partly drawn) | 86 |
| CC[C@H](C)C(=O)O[C@H]1CCC=C2C=C[C@H](C)[C@H](CC[C@@H]3C[C@@H](O)CC(=O)O3)[C@H]21 | 109 |
| COc1c(CC(=O)c2cc3c(cc2O)OC(C)(C)C(O)C3)ccc2c1C=CC(C)(C)O2 (stereo not drawn) | 333 |
| CC1(C)CC2C1CCC1(C)OC1CCC2(C)O (stereo not drawn) | 128 |
| CC(=O)C1CC[C@H]2C3CC[C@H]4C[C@H](O)CC[C@]4(C)C3CC[C@]12C (stereo partly drawn) | 107 |
| NCC(O)CC(=O)O (stereo not drawn) | 105 |
| O=C1c2ccccc2C(=O)c2c1ccc(O)c2O | 164 |
| COC(=O)C[C@H]1C(C)(C)C(=O)[C@@H]2CC3=C4CC(=O)O[C@@H](c5ccoc5)[C@]4(C)CCC3[C@@]1(C)C2=O (stereo partly drawn) | 117 |
| CN(C)CCCN1c2ccccc2Sc2ccc(C(F)(F)F)cc21.Cl | 62 |
